# Reference: article PMC9911399, “Two distinct binding modes provide the RNA-binding protein RbFox with extraordinary sequence specificity”
# Numbering of substitutions follows the chain as printed; changes in the protein carry UniProt numbers. The list shows a part of the results.
# T1: RBFOX1 RRM RbFoxmut (Fox-RRM*) (Homo sapiens, UniProt Q9NWB1 109-208, R118D;E147R;N151S;E152T)
# T1 sequence: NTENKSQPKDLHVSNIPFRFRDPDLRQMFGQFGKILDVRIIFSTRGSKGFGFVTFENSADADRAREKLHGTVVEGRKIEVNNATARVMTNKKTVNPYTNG
# B1: ACUUGGU (DNA:RNA)
# RNA: GGGAGACCGGAAUUCAGAUUGUCCACUUGGUUUAAAUCCCGUCGUAGCCACCA
# DNA 1: CAATCTGAATTCCGGTCTCCC
# DNA 2: TGGTGGCTACGACGGGATT
# B2: UGAUAUC (DNA:RNA)
# RNA: B1 RNA with A25U, C26G, U27A, G29A, G30U, U31C
# DNA 1: CAATCTGAATTCCGGTCTCCC
# DNA 2: TGGTGGCTACGACGGGATT
# B3: GCGUCGC (DNA:RNA)
# RNA: B1 RNA with A25G, U27G, G29C, U31C
# DNA 1: CAATCTGAATTCCGGTCTCCC
# DNA 2: TGGTGGCTACGACGGGATT
# B4: CCGUGUA (DNA:RNA)
# RNA: B1 RNA with A25C, U27G, G30U, U31A
# DNA 1: CAATCTGAATTCCGGTCTCCC
# DNA 2: TGGTGGCTACGACGGGATT
# B5: CGCUCAC (DNA:RNA)
# RNA: B1 RNA with A25C, C26G, U27C, G29C, G30A, U31C
# DNA 1: CAATCTGAATTCCGGTCTCCC
# DNA 2: TGGTGGCTACGACGGGATT
# B6: UUAGCAA (DNA:RNA)
# RNA: GGGAGACCGGAAUUCAGAUUGUCCUUAGCAAUUAAAUCCCGUCGUAGCCACCA
# DNA 1: CAATCTGAATTCCGGTCTCCC
# DNA 2: TGGTGGCTACGACGGGATT
# B7: UUUUGAU (DNA:RNA)
# RNA: B1 RNA with A25U, C26U, G30A
# DNA 1: CAATCTGAATTCCGGTCTCCC
# DNA 2: TGGTGGCTACGACGGGATT
# B8: UGCAAGA (DNA:RNA)
# RNA: B6 RNA with U26G, A27C, G28A, C29A, A30G
# DNA 1: CAATCTGAATTCCGGTCTCCC
# DNA 2: TGGTGGCTACGACGGGATT
# B9: UGAGUUG (DNA:RNA)
# RNA: B6 RNA with U26G, C29U, A30U, A31G
# DNA 1: CAATCTGAATTCCGGTCTCCC
# DNA 2: TGGTGGCTACGACGGGATT
# Target: T1, RBFOX1 RRM RbFoxmut (Fox-RRM*)
# Experiment: EMSA; HiTS-Eq, 1 nM pool, 10 min; buffer printed only for the single-RNA assays: 10 mM Tris pH 7.5, 150 mM NaCl, 3.4 mM EDTA, 0.001% NP-40, 30 C
# Details: tags: His6 N-terminal (pET28a); label: 5' 32P
# Method in brief: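 A pool of RNA with 7 randomized nucleotides, 5′-radiolabelled and with DNA-annealed flanks, was equilibrated at 1 nM for 10 min in 50 µL with purified RbFox RRM, wild type or mutant, across increasing protein concentrations. Free RNA was separated by 8% native PAGE, excised, reverse-transcribed, barcoded by PCR and sequenced. Relative association constants were obtained from read-count changes of each RNA species versus the control reaction and normalised to the cognate motif.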
row,Binder,binding signal
1,B1,0.143 KA relative to UGCAUGU
2,B2,0.145 KA relative to UGCAUGU
3,B3,0.103 KA relative to UGCAUGU
4,B4,0.185 KA relative to UGCAUGU
5,B5,0.0623 KA relative to UGCAUGU
6,B6,0.0901 KA relative to UGCAUGU
7,B7,0.0872 KA relative to UGCAUGU
8,B8,0.113 KA relative to UGCAUGU
9,B9,0.141 KA relative to UGCAUGU
